Assay results taken from PubChem BioAssay AID1508623 (National Center for Advancing Translational Sciences (NCATS), 2021).
Hit rate of the full screen: of about 48,000 compounds, about 450 (0.94%) were called active. Roughly 19% stayed inconclusive and do not appear here. Calls follow the shape of the dose curve; as a rule, active = well fitted inhibition curve with a large enough effect; inconclusive = small, poorly fitted or top-dose-only effect; inactive = no such curve, though single readings can be large or run the other way. This is one part of the list.

Test: Primary qHTS for Identification of Small Molecule Inhibitors of Huntingtin Promoter Activity; also: nearly all actives have a fitted effect of over 50% in size
Settings: HEK293 HTT promoter firefly luciferase reporter (activity 0% = vehicle and -100% = no light), 24 h; series mostly up to 57.5 µM; activity change, negative = inhibition: at the top concentration
Outline: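 Firefly luciferase signal from promoter-reporter HEK293 cells was scaled between vehicle (0%) and zero RLU (-100%). Compounds were tested at final concentrations of up to 57.5 uM over 24 h at 37 degrees C. PTC124 at 50 uM final served as control inhibitor.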
Potency is read from the fitted curve at half-maximal effect.

Activity change, negative = inhibition, inactive:
CCOc1cc(Cl)c(S(=O)(=O)n2ccnc2)cc1Cl 2.41%
Cc1nnc(N2CCC(C(=O)NCCC(C)C)CC2)c2nn(-c3ccc(Cl)cc3)c(C)c12 -12.8%
CCC(C(=O)N1CCN(c2ccccc2)CC1)n1c(C)c2cnn(-c3ccccc3)c(=O)c2c1C (stereo not drawn) -22.9%
O=C(NC1CCCC1)c1ccc2c(=O)n(Cc3ccccc3)c(SCc3cccc(F)c3)nc2c1 -1.48%
CCN(CC)c1ccc(NC(=O)CCCN2C(=O)C(c3ccccc3)Oc3cccnc32)c(C)c1 (stereo not drawn) -8.68%
COC(=O)c1ccc(NC(=O)CN2C(=O)CC(c3ccccc3)Sc3ccccc32)cc1 (stereo not drawn) 12.9%
Cc1cc(C)n(C(C)CC(=O)Nc2ccc(C)c(N(C)C)c2)n1 (stereo not drawn) 2.73%
C=C(C)CSc1nc(-c2ccccc2)cc(-c2ccc(OC)cc2)c1C#N -20.3%
Cc1ccc(N2CC(C(=O)Nc3ccc(N(C)C)cc3)CC2=O)cc1Cl (stereo not drawn) 3.91%
Fc1ccccc1N1CCN(c2nc3ccccc3c3nc(-c4ccccc4)nn23)CC1 -5.14%
CSc1ccc(-c2nnc(NC(=O)c3ccc4c(c3)OCCO4)o2)cc1 -2.65%
CC(=O)Nc1cccc(-n2cc3c(c2-c2ccccc2Cl)c(=O)n(C)c(=O)n3C)c1 0.542%
O=C(CCn1ccc2cc(S(=O)(=O)N3CCCC3)ccc21)NCc1ccccc1Br -22.5%
COc1ccc(C)cc1Nc1cc(C)nc(C)n1 49.9%
O=C(CN1C(=O)c2cccnc2Oc2ccc(Cl)cc21)Nc1cccc(C(F)(F)F)c1 -22.7%
CC(C)Oc1ccc(C(=O)Nc2c(C(=O)Nc3cccc(F)c3)oc3ccccc23)cc1 4.57%
COc1ccc(-c2cc(C(F)(F)F)nc(SCC(=O)NCC(C)C)n2)cc1OC -6.47%
Cc1ccn2c(=O)cc(COc3cccc(NC(=O)Nc4cccc(Cl)c4C)c3)nc2c1 -8.36%
COc1ccccc1NC(=O)C1=C(C)Nc2nc3ccccc3n2C1c1cccc(OC)c1OC (stereo not drawn) -4.69%
O=C(NCCCN1CCOCC1)c1ccc2c(c1)N(Cc1cccc(Cl)c1)C(=O)c1ccccc1S2 -25.3%
O=C(Cn1cc(S(=O)(=O)c2ccccc2)c(=O)c2cc(Cl)ccc21)Nc1ccc2c(c1)OCO2 -16.1%
COc1ccc(NC(C)=O)cc1NC(=O)CN1CCN(c2ccc(F)cc2)CC1 -21.3%
CCOc1cc(C(=O)NCC(c2ccc(N(C)C)cc2)N2CCOCC2)cc(OCC)c1OCC (stereo not drawn) -14.6%
Cc1ccc(-c2cn3c(n2)sc2cc(C(=O)NCCCc4ccccc4)ccc23)c(C)c1 -19.9%
CCCCN(CCCNC(=O)c1cc(Nc2ccc(OC)c(OC)c2)nc2ccccc12)c1ccccc1 15.3%
CC1CCCN(S(=O)(=O)c2ccc3c(c2)c(=O)nc2ccccn23)C1 (stereo not drawn) -21.7%
CC(=O)O[C@@]12CO[C@@H]1C[C@H](O)[C@@]1(C)C(=O)[C@H](O)C3=C(C)[C@@H](OC(=O)[C@H](O)[C@@H](NC(=O)OC(C)(C)C)c4ccccc4)C[C@@](O)([C@@H](OC(=O)c4ccccc4)[C@H]21)C3(C)C -23.2%
Cc1ccc2oc(=O)n(CCCOc3ccccc3Cl)c2c1 64.1%
Cc1cc(C)c(S(=O)(=O)NCC(c2ccc(N(C)C)cc2)N2CCOCC2)c(C)c1 (stereo not drawn) -12.9%
COc1ccccc1-c1noc(-c2ccc(NCC3CCCO3)c([N+](=O)[O-])c2)n1 (stereo not drawn) 39.7%
CC(CCc1ccccc1)NC(=O)Cn1c(=O)nc(-c2ccccc2)c2ccccc21 (stereo not drawn) 4.2%
CCOC(=O)c1cnc2c(C)c(Cl)ccc2c1Nc1ccc(N2CCOCC2)cc1 -7.4%
Cc1ccccc1Nc1c(-c2cccnc2)nc2ccc(Cl)cn12 -27.1%
CCCCN(C)CCNC(=O)CN1C(=O)CSc2ccc(S(=O)(=O)N3CCOCC3)cc21 4.9%
CCCN1CCN(CC2=C(C(=O)OCC)C(c3ccc(OC(C)C)cc3)NC(=O)N2)CC1 (stereo not drawn) -0.0099%
CCn1c(=O)c(=O)n(CC)c2cc(N3CCCCC3)c(NC(=O)c3ccccc3OC)cc21 -1.46%
COc1ccccc1-c1c(C)nn2c(N3CCN(c4ccccc4)CC3)cc(C)nc12 -13.9%
COc1ccc(OC)c(CNC(=O)CN2N=C(c3ccc(Cl)cc3)CCC2=O)c1 -8.25%
CCC(C)NC(=O)CSc1c2c(nc3cc(Cl)ccc13)CCCC2 (stereo not drawn) 0.282%
CCCOC1(C(F)(F)F)NC(=O)N(c2cccc(Cl)c2)C1=O (stereo not drawn) -13.8%
C=Cc1ccc(Cn2c(C(=O)O)c(CNC3CCCCC3)c3ccc(OC)cc32)cc1 -10.4%
COc1cccc(CNC(=O)C(=O)NCC(c2ccc3c(c2)OCO3)N2CCOCC2)c1 (stereo not drawn) -24.4%
CCOc1ccc(NC(=O)CSc2nnc(CNC(=O)C34CC5CC(CC(C5)C3)C4)n2CC)cc1 -26.8%
CCOC(=O)c1ccccc1NC(=O)Nc1cc2c(cc1N1CCCC1)n(C)c(=O)n2C -17.7%
Cc1cc2oc(C(=O)Nc3cccc(-c4nc5ccccc5o4)c3)c(C)c2cc1C 2.79%
COc1ccc(-n2nc3cc(C)c(NC(=O)Cc4ccc(Cl)cc4)cc3n2)cc1 6.9%
O=C(CSc1nc(=O)n(Cc2ccncc2)c2c1CCC2)Nc1ccc(F)cc1F -4.53%
CCCN1CN=C(NS(=O)(=O)c2ccc(NC(C)=O)cc2)NC1 -17.1%
CC(Oc1ccccc1)C(=O)Nc1ccccc1C(=O)OCc1cc(=O)n2nc(C(C)C)sc2n1 (stereo not drawn) -6.92%
CCc1ccc(NC(=O)CSc2nc(-c3cccc(OC)c3)nc3c2Cc2c(CO)cnc(C)c2O3)cc1 -13.2%
COc1cc(C(=O)N(Cc2ccc(N(C)C)cc2)CC2CCCO2)cc(OC)c1OC (stereo not drawn) -0.973%
Cc1c(C(=O)N(C)C)sc2c1c(=O)n(-c1ccc(Cl)c(Cl)c1)c(=O)n2CC(=O)N1CCCCC1C (stereo not drawn) -4.41%
CCCC12CN3CC(CCC)(CN(C1)C3c1ccc(OC(C)C)cc1)C2=O (stereo not drawn) -17.3%
COc1cccc(Cn2c(C)c(CNC3CCCCC3)c(C(=O)O)c2C)c1 1.91%
COc1ccc(-c2noc(-c3ccc(N4CCN(c5ccccc5OC)CC4)c([N+](=O)[O-])c3)n2)cc1 -6.97%
COc1ccc(N2CCN(C(=O)CN3C(=O)COc4ccc(S(=O)(=O)N5CCC(C)CC5)cc43)CC2)cc1 -24.6%
COc1ccc(N2CC(NC(=O)C3CCCCC3)CC2=O)cc1OC (stereo not drawn) -8.9%

Potency, active:
CCOc1ccc(-c2nc(CSCC(=O)NCCc3ccc(OCC)c(OCC)c3)c(C)o2)cc1 14.1 µM
